In PubChem BioAssay AID485294 (National Center for Advancing Translational Sciences (NCATS), 2010):
Screen size: about 370,000 compounds; about 150 (0.041%) were called active. The inconclusive results got no clear call from the source; some entries with a clear call stand among them for comparison. The call rests on the fitted dose curve; in most records, active means well fitted inhibition curve with a large enough effect; inconclusive means small, poorly fitted or top-dose-only effect; inactive means flat fitted curve, though single readings scatter. No potency is given beside an inconclusive call; the fits are too rough.

Target: Beta-lactamase (Escherichia coli (strain K12)) (UniProt P00811)
Assay: qHTS Inhibitors of AmpC Beta-Lactamase (assay with detergent); further: nearly all actives have a fitted effect of over 25% in size;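 on activity change, negative = inhibition: 0% = no-compound wells and -100% = no-enzyme wells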
Settings: AmpC hydrolysis of nitrocefin, absorbance 480 nm, 0.01% Triton; activity change, negative = inhibition: at 114 µM (top of the series)
Procedure, shortened: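 AmpC (5.3 nM in the dispensed reagent) in 20 mM phosphate pH 7.0 with 0.01% (detergent screen) or 0.0001% Triton X-100 was preincubated with compounds for 15 min at room temperature. Nitrocefin was then added from an 800 uM solution, and hydrolysis was followed at 480 nm.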
Potency means the concentration at half of the fitted maximal effect; tags describe the fitted curve by direction and shape.

Chain of UniProt P00811 (P00811 whole entry, looked up): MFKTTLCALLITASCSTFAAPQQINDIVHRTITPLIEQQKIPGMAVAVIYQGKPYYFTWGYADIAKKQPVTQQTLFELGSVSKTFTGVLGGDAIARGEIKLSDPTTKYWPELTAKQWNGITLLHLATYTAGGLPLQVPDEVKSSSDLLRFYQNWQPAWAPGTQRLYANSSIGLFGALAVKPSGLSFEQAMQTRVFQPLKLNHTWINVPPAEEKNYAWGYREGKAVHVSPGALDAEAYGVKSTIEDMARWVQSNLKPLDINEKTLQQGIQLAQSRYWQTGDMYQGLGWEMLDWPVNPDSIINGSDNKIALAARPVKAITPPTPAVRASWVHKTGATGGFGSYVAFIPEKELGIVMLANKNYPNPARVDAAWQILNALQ

Structure (SMILES) | activity change, negative = inhibition | Potency
COc1ccc(-c2c(C)c3ccc(O)c(CN4CCC(C)CC4)c3oc2=O)cc1OC | inactive: 20.5% | 
Cc1ccc2sc(NNC(=O)c3cc(-c4cccs4)nc4ccccc34)nc2c1C |  | inconclusive [inhibitor, partial curve, poor fit]
NC(=O)C1CCN(C(=O)COc2ccc3c4c(c(=O)oc3c2)CCCC4)CC1 |  | inconclusive [inhibitor, partial curve, poor fit]
O=C(CN(C(=O)CCC(=O)Nc1nccs1)c1cccc(F)c1)NCCc1ccccc1 |  | inconclusive [inhibitor, partial curve, poor fit]
[O-][n+]1c2c(nn1-c1ccccc1Cl)-c1nonc1CC2 |  | inconclusive [inhibitor, full curve, poor fit]
CC(=O)Nc1ccc2c(c1)nc(CN1CCCC1)n2C | inactive: 3.09% | 
CC(NC(=O)c1cc(S(=O)(=O)N2CCOCC2)ccc1N1CCCC1)c1ccc(Cl)c(Cl)c1 (stereo not drawn) |  | inconclusive [inhibitor, single point]
O=C(COc1ccc(Cl)cc1Cl)NN1C(=O)/C(=C\c2ccc(Cl)cc2)SC1=S |  | inconclusive [inhibitor, single point]
O=[N+]([O-])c1ccc(O)c(/C=N/n2cnc3ccccc32)c1 |  | inconclusive [inhibitor, partial curve]
O=C(NC12CCC(O)C(SC1)/C2=N/O)c1ccccc1 (stereo not drawn) |  | inconclusive [inhibitor, full curve, poor fit]
O=C(N/N=C/C=C/c1ccc2c(c1)OCO2)c1ccc([N+](=O)[O-])cc1 |  | inconclusive [inhibitor, full curve, poor fit]
C/C(N)=C(/C#N)C(=O)CSc1nnc(Nc2cccc(C)c2C)s1 | inactive: -3.23% | 
COCc1cc(C)nc(N2CCCCC2)c1C#N |  | inconclusive [inhibitor, single point]
O=C(Nc1ccccc1)Nc1cccc(C(F)(F)F)c1 | inactive: -0.529% | 
COc1ccc(N=c2scc(-c3ccc(S(=O)(=O)N4CCOCC4)cc3)n2CCCO)cc1 |  | inconclusive [inhibitor, single point]
COCCn1c(=NC(=O)c2cc(Cl)sc2Cl)sc2cc(S(N)(=O)=O)ccc21 |  | inconclusive [inhibitor, partial curve, poor fit]
O=C(CN1C(=O)C2CC=CCC2C1=O)Nc1nnc(SCc2ccc(Cl)cc2)s1 (stereo not drawn) |  | inconclusive [inhibitor, single point]
Fc1ccccc1C(c1nnnn1Cc1ccc2c(c1)OCO2)N1CCN(Cc2ccco2)CC1 (stereo not drawn) |  | inconclusive [inhibitor, full curve, poor fit]
CC1CN(C(=O)N(C)C)CCN1C(=O)N(C)C (stereo not drawn) |  | inconclusive [inhibitor, full curve]
COc1ccc(Cn2ccc3nc(C)c(C(=O)Nc4cccc(SC)c4)cc3c2=O)cc1 | inactive: 2.99% | 
O=C(CCNS(=O)(=O)c1ccccc1)OCC(=O)c1ccc(Cl)cc1 |  | inconclusive [inhibitor, full curve, poor fit]

Structure (SMILES) | activity change, negative = inhibition | Potency
COC(=O)CSc1n[nH]c(=S)s1 |  | inconclusive [inhibitor, partial curve, poor fit]
Cc1ccc(-c2noc(CCCC(=O)NC3CCCCC3)n2)cc1 |  | inconclusive [inhibitor, partial curve, poor fit]
Cc1ccc(OCc2nc3c4c(ncn3n2)-c2ccccc2CC42CCCC2)cc1 |  | inconclusive [inhibitor, full curve, poor fit]
O=C1c2cccc3cccc(c23)C(=O)N1CC1CCN(CC(O)COCc2ccc3c(c2)OCO3)CC1 (stereo not drawn) | inactive: -3.85% | 
COc1cc(C2NC(C(=O)O)Cc3c2[nH]c2ccccc32)cc(OC)c1OC (stereo not drawn) | inactive: 1.91% | 
O=C(c1cccc(NS(=O)(=O)c2ccccc2)c1)N1CCN(c2ccccc2)CC1 |  | inconclusive [inhibitor, full curve]
Cc1cc(C)n(-c2nnc(C)n2/N=C/c2ccco2)n1 |  | inconclusive [inhibitor, full curve, poor fit]
O=C(Nc1nnc(-c2ccc(Cl)cc2)o1)c1cccc(N2C(=O)CCC2=O)c1 |  | inconclusive [inhibitor, full curve]
CC(NCCOCCOc1ccccc1)c1ccccc1 (stereo not drawn) |  | inconclusive [inhibitor, full curve, poor fit]
COC(=O)C(Cc1ccc(O)cc1)NC(=O)CCc1nc2ccccc2s1 (stereo not drawn) |  | inconclusive [inhibitor, full curve, poor fit]
CCOc1c(Cl)cc(CNc2ccc(N3CCCC3)cc2)cc1OC |  | inconclusive [inhibitor, full curve, poor fit]
CCCC(C(=O)NC1CCCC1)N(CC1CCCO1)C(=O)c1snc(C(N)=O)c1N (stereo not drawn) |  | inconclusive [inhibitor, full curve, poor fit]
CC(=O)Nc1cc(NC(C)=O)cc(C(=O)N2CCCC3CCCCC32)c1 (stereo not drawn) |  | inconclusive [inhibitor, partial curve]
Cc1cc(C(=O)Nc2sc3c(c2C#N)CCC(C)C3)cs1 (stereo not drawn) |  | inconclusive [inhibitor, full curve]
NNC(=O)c1n[nH]c2c1CC(C1CCCCC1)CC2 (stereo not drawn) |  | inconclusive [inhibitor, full curve, poor fit]
O=C(CN(C(=O)CCC(=O)Nc1ccccn1)C1CCCC1)NCc1ccccc1 |  | inconclusive [inhibitor, partial curve, poor fit]
COc1ccc(-c2nc3sc(CCNC(=O)c4ccc(Br)o4)c(C)n3n2)cc1 | inactive: 2.58% | 
O=C(Cn1ncc2c3ccccc3n(Cc3cccc(Cl)c3)c2c1=O)N1CCC2(CC1)OCCO2 | inactive: -12.2% | 
COc1ccc(C(c2sc3ncnn3c2O)N2CCN(c3ccccc3F)CC2)cc1OC (stereo not drawn) |  | inconclusive [inhibitor, full curve]
CCN(CC)C(=O)c1c(-c2ccccc2)c(-c2ccccc2)nn(CC)c1=O | inactive: 24.8% | 
COc1cccc(OC)c1C(=O)Oc1ccc2c(c1)O/C(=C\c1ccncc1)C2=O |  | inconclusive [inhibitor, full curve, poor fit]

Structure (SMILES) | activity change, negative = inhibition | Potency
COCCNC(=O)Cn1nc(C)c2ccccc2c1=O |  | inconclusive [inhibitor, partial curve, poor fit]
Cc1ccc(C(=O)NCCSC2CCCCC2)cc1S(=O)(=O)Nc1ccccc1 |  | inconclusive [inhibitor, full curve, poor fit]
O=C(Nc1ccc(Cl)c(Cl)c1)Nc1nccs1 |  | inconclusive [inhibitor, single point]
CCOC(=O)C(=O)c1c(C)cc2ccccn12 |  | inconclusive [inhibitor, single point]
Nc1c2c(nc3ccc(Br)cc13)N(Cc1ccccc1)CC2 |  | inconclusive [inhibitor, full curve]
Cc1cc(C)c(NC(=O)Nc2ccc3c(c2)OCO3)c(C)c1 |  | inconclusive [inhibitor, full curve]
O=C(CN1C(=O)C2CCCCC2C1=O)Nc1ccc(OC(F)F)c(Cl)c1 (stereo not drawn) |  | inconclusive [inhibitor, partial curve]
Cc1cccnc1NC(=O)CSc1ncnc2sc(C)c(C)c12 |  | inconclusive [inhibitor, full curve, poor fit]
Cc1ccc(-n2nc(CN3CCOCC3)c(-c3ccccc3)c2N)cc1Cl |  | inconclusive [inhibitor, full curve]
COC(=O)c1cccc(NC(=O)CN2CCN(Cc3ccccc3)CC2)c1 |  | inconclusive [inhibitor, single point]
COc1ccc(CCN2CN(S(=O)(=O)c3ccccc3)c3nc4ccccc4nc32)cc1OC |  | inconclusive [inhibitor, full curve, poor fit]
Cc1c(NC(=O)c2cccs2)cccc1-c1nc2ccccc2s1 |  | inconclusive [inhibitor, single point]
CCc1ccc([C@@H]2CC=C(C(=O)O)[C@H](c3ccccc3)N2S(=O)(=O)c2ccc(C)cc2)cc1 |  | inconclusive [inhibitor, single point]
CCOc1ccc(C(=O)NCC(=O)OCc2csc(-c3ccccc3)n2)cc1 |  | inconclusive [inhibitor, single point]
O=c1cccc2n1CC1CC2CN(Cc2c(F)cccc2Cl)C1 (stereo not drawn) |  | inconclusive [inhibitor, partial curve, poor fit]
O=C(CSc1nnc(-c2ccccc2)c(-c2ccccc2)n1)N1CCOCC1 |  | inconclusive [inhibitor, single point]
N#Cc1c(-c2ccccc2)cc(-c2ccccc2)nc1SCC(O)CS(=O)(=O)Cc1ccc(Cl)cc1 (stereo not drawn) | inactive: 5.28% | 
CC(=O)c1ccc(N2CCN(C(=O)c3cc(-c4ccncc4)nc4ccc(Br)cc34)CC2)cc1 | inactive: 4.65% | 
CCn1nc(C)c(NS(=O)(=O)c2ccc(C)cc2)c1C |  | inconclusive [inhibitor, partial curve]
CC1CCN(C(=O)Cn2nnc(-c3ccc(N)cc3)n2)CC1 |  | inconclusive [inhibitor, partial curve, poor fit]
Cc1cc(OCC(=O)NC(C)C)cc(C)c1Cl |  | inconclusive [inhibitor, partial curve]
